# Test results taken from PubChem BioAssay AID624417 (National Center for Advancing Translational Sciences (NCATS), 2012).
# The campaign covered roughly 410,000 compounds. About 6,400 (1.6%) were called active. Inconclusive results, whose numbers are uncertain, are shown with a selection of clear calls. The call rests on the fitted dose curve; in most records, active means well fitted inhibition curve with a large enough effect; inconclusive means small, poorly fitted or top-dose-only effect; inactive means no such curve, though single readings can be large or run the other way. Potencies beside an inconclusive call are fits to weak or partial responses and may not hold up.
# Target: Glucagon-like peptide 1 receptor (Homo sapiens) (UniProt P43220)
# Sequence of UniProt P43220 (P43220 whole entry, looked up): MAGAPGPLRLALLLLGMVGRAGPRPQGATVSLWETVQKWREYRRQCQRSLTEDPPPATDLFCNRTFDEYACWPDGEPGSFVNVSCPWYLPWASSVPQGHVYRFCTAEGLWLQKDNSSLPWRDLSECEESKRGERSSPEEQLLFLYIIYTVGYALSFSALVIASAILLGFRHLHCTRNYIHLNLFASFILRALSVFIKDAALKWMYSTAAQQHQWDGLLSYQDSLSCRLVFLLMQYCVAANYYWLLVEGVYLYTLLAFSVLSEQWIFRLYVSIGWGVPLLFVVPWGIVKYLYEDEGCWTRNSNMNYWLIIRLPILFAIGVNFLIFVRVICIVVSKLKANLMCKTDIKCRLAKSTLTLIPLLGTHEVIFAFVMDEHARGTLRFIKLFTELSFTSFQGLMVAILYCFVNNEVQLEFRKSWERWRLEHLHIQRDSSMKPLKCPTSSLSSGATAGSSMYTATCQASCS
# Test: qHTS of GLP-1 Receptor Inverse Agonists (Inhibition Mode); further: nearly all actives have a fitted effect of over 55% in size
# Conditions: HEK293 GLP-1R CRE-luciferase, luminescence, 24 h, GLP-1R form is constitutively active; activity change, negative = inhibition: at 38.3 µM (top of the series) unless noted
# Procedure, shortened: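 Constitutively active GLP-1R drives a cAMP-responsive luciferase in stably transfected HEK293 cells; test compounds are added after overnight (12 h) attachment and left 24 hr, and signal loss in luminescence marks inhibition.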
# On the % scale 0 is the no-effect control and ±100 the full control effect; potency means the concentration at half of the fitted maximal effect; tags describe the fitted curve by direction and shape.
SMILES,Potency,"activity change, negative = inhibition"
N#Cc1ccc(-c2nc3cc(Cl)ccc3c(=O)n2O)cc1,"inconclusive: 15.8 µM [inhibitor, single point]",
COC(=O)CSc1ncnc2c1sc1nc3c(cc12)COC(C)(C)C3,"inconclusive: 7.94 µM [inhibitor, partial curve]",
COc1ccc(OC)c(S(=O)(=O)N2CCN(c3ncccn3)CC2)c1,,inactive: 2.68%
COc1ccc(N2Cc3ccccc3C2=O)cc1,"inconclusive: 10 µM [inhibitor, single point]",
COc1ccc(Cl)cc1NC(=O)COC(=O)c1cc(NS(=O)(=O)c2cccs2)ccc1O,"inconclusive: 10 µM [inhibitor, single point]",
CC(Oc1ccc(Cl)cc1Cl)c1nc(-c2ccccn2)no1 (stereo not given),"inconclusive: 28.2 µM [inhibitor, single point]",
O=C(c1ccc(Cl)cc1)C1CCN(C(=O)C2CC2)CC1,,inactive: -17.9%
Cc1cc(C)c(S(=O)(=O)Cc2ccccc2)c(OC(C)C)n1,"inconclusive: 20 µM [inhibitor, single point]",
CNC(=S)N/N=C/c1ccc(OCc2ccccc2)c(Br)c1,"inconclusive: 7.94 µM [inhibitor, partial curve, poor fit]",
COc1ccc(/C=N/NC(=O)c2cccc([N+](=O)[O-])c2)cc1OS(=O)(=O)c1ccc(C)cc1,"inconclusive: 11.2 µM [inhibitor, partial curve, poor fit]",
O=C1C=C(c2ccccc2Oc2ccccc2)C[C@@H](c2ccc(F)cc2)C1,"inconclusive: 10 µM [inhibitor, partial curve, poor fit]",
COc1cccc(-c2cn3c(n2)sc2cc(C(=O)NC4CCCCC4)ccc23)c1,,inactive: 6.63%
CCOC(=O)C1=CCN(S(=O)(=O)c2ccccc2Cl)C1c1ccccc1 (stereo not given),"inconclusive: 28.2 µM [inhibitor, single point]",
COc1cccc(N2C(=O)C3C(C2=O)C3(c2ccccc2)c2ccccc2)c1 (stereo not given),"inconclusive: 10 µM [inhibitor, partial curve]",
Cc1ccc(OCC(=O)Nc2cccc(S(=O)(=O)N3CCCC3)c2)cc1C,"inconclusive: 28.2 µM [inhibitor, single point]",
CCOc1ccc(NC(=O)c2cc3c(C)nc4ccccc4c3o2)cc1,"inconclusive: 1 µM [inhibitor, full curve, poor fit]",
CC(=O)OCCCN(C)CC/C=C1/c2ccccc2CSc2ccccc21,"inconclusive: 1.78 µM [inhibitor, partial curve, poor fit]",
CN(C)c1ccc(C=c2c3ccccc3n3c2cc(-c2ccc(Cl)cc2)[n+]3C)cc1,"inconclusive: 7.08 µM [inhibitor, partial curve, poor fit]",
Cc1ccc(-c2ccc([C@H]3[C@H]4C=CC[C@@H](C)[C@@H]4C(=O)N3Cc3ccccc3)c(F)c2)cc1,,inactive: -27.7%
Cc1ccc2nc(-c3cccc(NC(=O)c4ccco4)c3)[nH]c2c1,"inconclusive: 8.91 µM [inhibitor, single point]",

SMILES,Potency,"activity change, negative = inhibition"
O=C(c1ccc([N+](=O)[O-])s1)N1CCN(c2cccc(Cl)c2)CC1,"inconclusive: 28.2 µM [inhibitor, single point]",
O=C(Nc1ccc(S(=O)(=O)N2CCCCC2)cc1)C1CCCN(C(=O)c2ccc(Cl)cc2)C1 (stereo not given),"inconclusive: 12.6 µM [inhibitor, single point]",
O=S(=O)(c1ccc(-c2cnc(C3CC3)o2)cc1)N1CCN(c2ccc(F)cc2)CC1,"inconclusive: 0.708 µM [inhibitor, full curve, poor fit]",
CCn1nc(C)c2c(-c3ccccc3)cc(=O)n(C(C)C(=O)NCCc3ccc(Cl)cc3)c21 (stereo not given),"inconclusive: 12.6 µM [inhibitor, partial curve, poor fit]",
Cc1cc(C)c(C)c(OCC(=O)O/N=C(\N)c2ccncc2)c1,"inconclusive: 28.2 µM [inhibitor, single point]",
Clc1ccc(CSc2nnc(-c3cccnc3)n2Cc2ccco2)c(Cl)c1,"inconclusive: 0.631 µM [inhibitor, full curve, poor fit]",
CC(NC(=O)Cc1ccc(S(=O)(=O)N2CCOCC2)s1)c1ccc(Cl)c(Cl)c1 (stereo not given),"inconclusive: 11.2 µM [inhibitor, partial curve, poor fit]",
CN(C)S(=O)(=O)Oc1ccc(C(=O)Nc2cccc(Cl)c2)cc1,"inconclusive: 28.2 µM [inhibitor, single point]",
O=C(Nc1cc(F)cc(F)c1)c1ccc(NCCCN2CCCCCC2)c([N+](=O)[O-])c1,,inconclusive: -34.3% [inhibitor] [at 7.66 µM]
CCOC(=O)c1c(S(=O)(=O)N2CCC(C(=O)Nc3ccc(C)c(Cl)c3)CC2)c(C)n(C)c1C,,inactive: -3.8%
Cc1ccc(C(=O)N/N=C/c2c(O)ccc3ccccc23)cn1,"inconclusive: 1.12 µM [inhibitor, full curve, poor fit]",
CC(C)(C)OC(=O)[C@H](Cc1ccccc1)NC(=O)c1nc[nH]c1C(=O)N1CCN(C(=O)OC(C)(C)C)CC1,active: 4.47 µM,
CCCOc1ccc(/C=N/NC(=O)c2nnn(-c3nonc3N)c2-c2cccs2)cc1OC,"inconclusive: 12.6 µM [inhibitor, partial curve, poor fit]",
CCOc1ccc(NCc2nnc(SCc3ccccc3Cl)n2-c2ccccc2)cc1,"inconclusive: 14.1 µM [inhibitor, single point]",
Cc1ccc(S(=O)(=O)N2CN(Cc3ccco3)c3nc4ccccc4nc32)cc1C,"inconclusive: 28.2 µM [inhibitor, single point]",
O=C(c1ccc2c(c1)N(Cc1cccc(Cl)c1)C(=O)c1ccccc1S2=O)N1CCC(Cc2ccccc2)CC1 (stereo not given),,inactive: 1.56%
CCCC1O[C@@H]2CC3C4CCC5=CC(=O)C=C[C@]5(C)C4C(OC(C)=O)C[C@]3(C)[C@]2(C(=O)COC(C)=O)O1 (stereo not given in full),"inconclusive: 28.2 µM [inhibitor, single point]",
COc1ccccc1NC(=O)Nc1nc(C(N)Cc2ccccc2)cs1 (stereo not given),"inconclusive: 28.2 µM [inhibitor, single point]",
CCn1nnc(NC(=O)c2ccco2)n1,,inactive: 21.9%
COc1ccc(-c2c(C(=O)c3ccccc3)[nH]c(N)c2C(=O)c2ccc(Br)cc2)cc1OC,,inactive: -16.6%

SMILES,Potency,"activity change, negative = inhibition"
COc1cccc(C2CC(c3ccccc3)=NN2S(=O)(=O)c2ccc(C)cc2)c1OC (stereo not given),"inconclusive: 10 µM [inhibitor, partial curve, poor fit]",
Cc1cc(=O)oc2cc(OCC(=O)NC3CC(C)(C)NC(C)(C)C3)c(Cl)cc12,"inconclusive: 28.2 µM [inhibitor, single point]",
Fc1ccccc1CSc1nnc(-c2cccnc2)o1,,inactive: -0.0936%
CCOc1ccccc1CNC(=O)Cn1nc(C)c2c(C)n(-c3ccc(C)cc3)nc2c1=O,"inconclusive: 5.01 µM [inhibitor, full curve, poor fit]",
CC(C(=O)NC1CCCC1)N(C(=O)Cn1nnc(-c2ccc(F)cc2)n1)c1ccccc1F (stereo not given),"inconclusive: 28.2 µM [inhibitor, single point]",
COc1cc(OC)cc(C(=O)N/N=C/c2ccc(OC)c(COc3ccc(F)cc3)c2)c1,"inconclusive: 2.24 µM [inhibitor, full curve]",
Cc1ccccc1C1NC(=O)Cc2ccccc21 (stereo not given),"inconclusive: 8.91 µM [inhibitor, partial curve, poor fit]",
Cc1[nH]c2ccc(C(=O)N3CCN(Cc4ccccc4)CC3)cc2c1C,"inconclusive: 28.2 µM [inhibitor, single point]",
O=C(CCl)NCCNC(=O)c1cc(OCC(F)(F)F)ccc1OCC(F)(F)F,"inconclusive: 7.08 µM [inhibitor, partial curve]",
O=[N+]([O-])c1ccc(NNC(=S)Nc2ccc(F)cc2)cc1,,inactive: -20.6%
O=C(Nc1cccc(C(F)(F)F)c1)NC1CCN(S(=O)(=O)c2ccc(F)cc2)CC1,"inconclusive: 2 µM [inhibitor, full curve, poor fit]",
CCc1ccc(C2=NN(CCC(=O)NC3CCCCCC3)C(=O)CC2)cc1,"inconclusive: 11.2 µM [inhibitor, partial curve, poor fit]",
OCCC1CN(Cc2cccc(-c3ccco3)c2)CCN1Cc1ccsc1 (stereo not given),"inconclusive: 28.2 µM [inhibitor, single point]",
Cc1cc2oc(=O)c(CC(=O)O)c(C)c2c2occ(-c3ccccc3)c12,"inconclusive: 8.91 µM [inhibitor, partial curve, poor fit]",
C/C(=N\NC(=S)NCc1ccccc1)c1ccc2ccccc2c1OC(F)F,"inconclusive: 28.2 µM [inhibitor, single point]",
CCOC(=O)c1ccc(Nc2cc(C)nc(-c3ccccc3)n2)cc1,"inconclusive: 2.82 µM [inhibitor, partial curve, poor fit]",
COc1ccc(CCN2C(=O)N(c3cccc(OC)c3)C(=O)C2CC(=O)Nc2ccccc2)cc1 (stereo not given),"inconclusive: 15.8 µM [inhibitor, partial curve, poor fit]",
O=C(CN1CCc2ccccc2C1)Nc1ccccc1Cl,"inconclusive: 22.4 µM [inhibitor, single point]",
Cc1ccc(C)c(SCC(=O)OC/C(O)=C(\C#N)c2nc3ccccc3[nH]2)c1,"inconclusive: 10 µM [inhibitor, partial curve, poor fit]",
Cc1cc2nc(N3C(=O)CNC3=S)sc2cc1C,"inconclusive: 3.55 µM [inhibitor, full curve, poor fit]",
